In PubChem BioAssay AID485344 (National Center for Advancing Translational Sciences (NCATS), 2010):
“And” between values parts separate entries of the source, which are not always exact repeats. Identical values can stand only once. Screen size: about 340,000 compounds; about 6,900 (2%) were called active. No stated cut-off is given here; in the data, active means inhibition above about 30%; inactive means below that, where a call was filed. This is a selection; strong and weak results do not stand in their true shares. Where no call is shown, the source filed none.

molecular target: D(2) dopamine receptor (Homo sapiens) (UniProt P14416); test: HTS Assay for Allosteric Antagonists of the Human D2 Dopamine Receptor: Primary Screen for Antagonists; conditions: HEK293 TREx D2 cells, calcium flux, dopamine EC80; at 10 µM; stronger effect = higher value; further: 0% is about no effect
Chain of UniProt P14416 (P14416 whole entry, looked up): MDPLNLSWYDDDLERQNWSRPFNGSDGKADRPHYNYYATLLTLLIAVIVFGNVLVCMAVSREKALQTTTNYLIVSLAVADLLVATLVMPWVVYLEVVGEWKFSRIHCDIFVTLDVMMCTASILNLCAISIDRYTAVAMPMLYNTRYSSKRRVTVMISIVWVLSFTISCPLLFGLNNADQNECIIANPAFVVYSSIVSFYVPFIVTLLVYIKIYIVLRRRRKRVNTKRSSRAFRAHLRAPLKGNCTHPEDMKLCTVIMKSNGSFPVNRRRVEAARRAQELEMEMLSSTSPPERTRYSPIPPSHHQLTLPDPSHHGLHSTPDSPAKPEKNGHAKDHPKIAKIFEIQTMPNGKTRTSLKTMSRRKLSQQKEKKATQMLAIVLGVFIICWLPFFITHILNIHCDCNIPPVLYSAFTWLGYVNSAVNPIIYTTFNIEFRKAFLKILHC
Outline: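 Inhibition of EC80 dopamine-driven calcium flux, recorded kinetically, defines activity here; cells are a tetracycline-induced HEK293 T-REx line expressing force-coupled D2.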

SMILES | inhibition
CCS(=O)(=O)N1CCc2cc(C(=O)Nc3ccc(C)c(Cl)c3)ccc21 | 21.8%
O=C(Nc1nnc(S(=O)(=O)N2CCOCC2)s1)c1cccc(F)c1 | 4.5%
O=C1CCc2cc(S(=O)(=O)NCc3ccc(F)cc3)cc3c2N1CC3 | 16.8%
Cc1ccc(Cc2nc3ccccc3nc2SCC(=O)N2CCN(c3ccccc3F)CC2)cc1 | 6.82%
COc1ccc(C(=O)COC(=O)c2cc(-c3ccccc3)nc3c(C)cccc23)cc1 | 9.05%
Cc1nc2c(-c3ccccc3)c(C)nn2c(C)c1CCC(=O)N1CCN(c2ccccc2)CC1 | 12.3%
CCC(=O)N1CCc2cc(Br)cc(S(=O)(=O)N3CCCC(C(=O)NCc4cccc(OC)c4)C3)c21 (stereo not drawn) | 24%
CC(=O)N1CCCc2ccc(NS(=O)(=O)c3ccc(C)c(C)c3)cc21 | -5.36%
Cn1nc(C(=O)N2CCN(c3cccc(Cl)c3)CC2)c2c1-c1ccccc1S(=O)(=O)C2 | 5.2%
CC[C@@H](C(=O)[C@@H](C)[C@@H](O)[C@H](C)CCc1ccc(C)c(O)c1C(=O)O)[C@H]1O[C@](CC)([C@H]2CC[C@](O)(CC)[C@H](C)O2)C[C@@H]1C | active: 48.9%
CCc1cc2c(cc3c(=O)n(CC(=O)N4CCC(C)CC4)nc(CC)n32)s1 | -6.13%
CCCS(=O)(=O)c1ncc(Cl)c(C(=O)Nc2c(C(=O)c3ccccc3)oc3ccccc23)n1 | 3.95%
COc1ccc(CC(=O)NCc2ccc3c(c2)CCN3C(C)=O)cc1OC | -3.09%
CCN(CC)S(=O)(=O)c1ccc2c(c1)c(=O)c(C(=O)NCc1ccc(Cl)cc1)cn2C | 4.29%
CCOC(=O)C1CCN(C(=O)c2ccc3c(c2)sc2nc(-c4ccccc4)cn23)CC1 | 13.9%
COc1cccc(CNC(=O)C2Cc3cc(S(=O)(=O)N4CCCCCC4)ccc3N2C(C)=O)c1 (stereo not drawn) | 4.49%
Cc1c(C(=O)N(C)C)sc2c1c(=O)n(-c1ccc(F)cc1)c(=O)n2Cc1cc(=O)n2ccccc2n1 | 6.83%
CCCCCC[N+](C)(C)CC/C=C1/c2ccccc2Sc2ccc(Cl)cc21 | active: 75.3%
Cc1ccc(NC(=O)C2C3C=CC4(O3)C2C(=O)N(CCCN2CCOCC2)C4C(=O)NC2CCCCC2)cc1Cl (stereo not drawn) | active: 31.1%
Nc1c(C(=O)Nc2ccc(Cl)c(C(F)(F)F)c2)sc2nc(-c3ccncc3)ccc12 | 4.61%
COc1ccc(OC)c(NC(=O)COCc2cc(-c3ccco3)on2)c1 | -22%
Cc1cc(C)c(Cn2c(=O)n(Cc3ccccc3)c(=O)c3c(C)c(C)sc32)c(C)c1 | -9.55%
COc1ccc(-n2nc(C(=O)N3CCCCC3)c3c4ccccc4n(C)c3c2=O)cc1Cl | 2.44%
Cc1ccc(S(=O)(=O)c2nnn(CC(=O)Nc3ccccc3C)c2N)cc1 | -24.3%

SMILES | inhibition
O=C(O)CC(c1ccc(Br)cc1)N1Cc2ccccc2C1=O (stereo not drawn) | active: 42.3%
CCOC(=O)c1cc(-c2ccccc2)n(CCC(=O)NCCc2ccc(C)cc2)c1C | -7.7%
COc1ccc(N2CCN(S(=O)(=O)c3cc(Br)cc4c3N(C(=O)C3CC3)CC4)CC2)cc1 | -11.3%
CC(C)(C)OC(=O)N1CCC(c2c(C(=O)N3CCN(c4ccccn4)CC3)cnn2-c2cccc(F)c2)CC1 | -3.06%
Cc1ccc(NC(=O)Cn2c(=O)n(Cc3ccco3)c(=O)c3sc4ccccc4c32)c(C)c1 | 1.04%
Cc1ccc(C(=O)NCC(c2ccco2)S(=O)(=O)c2ccccc2)cc1C (stereo not drawn) | -8.58%
COc1cc2c(=O)c(S(=O)(=O)c3ccc(C(C)C)cc3)cn(Cc3ccccc3C)c2cc1OC | -6.14%
CCOC(=O)c1c(C)c(-c2ccccc2)n(CC(=O)NCc2ccccc2)c1C | 15.1%
CCOC(=O)c1ccc(NS(=O)(=O)c2ccc3c(c2)CCN3C(=O)CC)cc1 | -4.4%
CCOC(=O)N1CCc2c(sc(NCc3cccs3)c2C(=O)Nc2cc(Cl)ccc2OC)C1 | -10.2%
CCN(CC)c1ccc(NC(=O)C2CCN(S(=O)(=O)c3ccc4c(c3)oc(=O)n4C)CC2)c(C)c1 | 0.0645%
Cc1cccc(NC(=O)C(NS(=O)(=O)c2cccc3nsnc23)c2ccccc2)c1C (stereo not drawn) | -6.26%
COc1ccccc1N1CCN(C(=O)c2ccc3c(c2)N(Cc2cc(C)ccc2C)C(=O)c2ccccc2S3(=O)=O)CC1 | 2%
COc1ccc(CN(C(=O)c2cc(=O)c3ccccc3o2)C2CCS(=O)(=O)C2)cc1OC (stereo not drawn) | -12.4%
Cc1cccc(N2CCN(CC3CCCCC3)CC2)c1C | active: 73.3%
O=C(Nc1nc(-c2ccccc2)ns1)c1ccc(Cl)cc1 | 11.9%
Cc1cccc(NC(=O)CCNC(=O)c2ccccc2)c1 | active: 35.5%
COc1cccc(NC(=O)CN2C(=O)CC(c3ccco3)Sc3ccccc32)c1 (stereo not drawn) | -3.86%
Cc1cccc(C)c1NC(=O)CN1C(=O)N(C)Cc2ccccc21 | active: 44.9%
COC(=O)c1sc(-c2ccccc2)cc1NC(=O)c1cccc(Cl)c1 | 6.55%
CC1CCN(CCOc2cccc(Br)c2)CC1 | active: 97.8%
Cc1cccc(C)c1NC(=O)C(=O)NCC(c1cccnc1)N1CCc2ccccc21 (stereo not drawn) | 15.1%
O=C(C1CCC(Cn2c(=O)c3sccc3n(Cc3ccccc3F)c2=O)CC1)N1CCOCC1 (stereo not drawn) | -0.0173%
COc1cc(NC(=O)c2cc3c(=O)n(Cc4ccco4)ccc3nc2C)cc(OC)c1OC | 5.38%

SMILES | inhibition
O=C(NCc1ccco1)c1ccc(S(=O)(=O)N2CCCc3ccccc32)cc1 | active: 40%
Cc1ccc(C#N)c(SCCN2CCCCC2)n1 | active: 33.5%
CCOc1ccc(NC(=O)CN2C(=O)c3ccccc3Sc3ccc(C(=O)OC)cc32)cc1 | 11.1%
Cc1ccc2c(c1)c(=O)c1ccccc1n2CCCC(=O)Nc1ccc(Cl)c(Cl)c1 | 5.91%
Cc1cc(C)cc(-n2c(SCC(=O)NCc3ccc(F)cc3)nc3c([nH]c4ccccc43)c2=O)c1 | -3.62%
COc1cc(NC(=O)CSc2nc(-c3ccccc3)no2)cc(OC)c1 | 4.22%
COc1ccccc1NC(=O)c1c(C)cc(C)nc1SCC(=O)Nc1ccc(C)cc1 | -6.05%
COc1ccc(NC(=O)Cn2nnc(C(=O)NCc3ccco3)c2N)c(OC)c1 | 8.09%
Cc1ccc(N2CCN(C(=O)c3cn(C)c4ccc(S(=O)(=O)N5CCCC5)cc4c3=O)CC2C)cc1 (stereo not drawn) | -20.1%
Cc1cc(Nc2cccc(Br)c2)n2c(nc3ccccc32)c1C#N | -9.86%
CC(=O)Nc1ccc(S(=O)(=O)NCC2CCC(C(=O)NCc3ccccc3)CC2)cc1 (stereo not drawn) | -28.3%
CCOc1cc(C(Nc2cc(C)ccn2)c2ccc3cccnc3c2O)ccc1OC (stereo not drawn) | 14.1%
CN(CCOc1ccccc1)CCOc1ccccc1 | active: 37.1%
O=C(CSc1nc2c([nH]c3ccccc32)c(=O)n1-c1ccc(Cl)cc1)NC1CCCCC1 | -1.71%
CCc1ccc(NC(=O)N2CCN(Cc3nc4ccc(C)cc4o3)CC2)cc1 | -24.2%
CCCCNC(=O)Nc1ccc2c(c1)N(C)C(=O)c1ccccc1S2 | 21% and active: 46.3%
CCN(CC)C(=O)CN1C(=O)COc2ccc(S(=O)(=O)N3CCOCC3)cc21 | -6.12%
COC(=O)C1=C(C)NC(=O)C1(NC(=O)c1ccc(Cl)cc1)C(F)(F)F (stereo not drawn) | -16.2%
CC1=Nc2cc(C(=O)NCc3ccc(C)cc3)ccc2Sc2ccc(Cl)cc21 | 5.53%
CCN1CCC(N(Cc2cccc(OC)c2)C(=O)Nc2cccc(C)c2C)CC1 | 4.72%
COc1ccc(C2N=C(N)Nc3nc4ccccc4n32)c(OC)c1OC (stereo not drawn) | 4.43%
CCOC(=O)c1sc(NC(=O)C(C)Oc2ccc(OC)cc2)c(C(=O)OCC)c1C (stereo not drawn) | 10.5%
COc1ccc(C(=O)Nc2cc(-c3ccccc3)nn2-c2ccccc2)cc1 | 5.09%
COc1ccc(C)cc1NC(=O)CN1C(=O)COc2ccc(S(=O)(=O)N3CCOCC3)cc21 | 18.7%

SMILES | inhibition
CCOC(=O)c1cccc(NC(=O)c2cc3cc4cc(OC)ccc4nc3s2)c1 | -15.4%
Cc1ccc(NC(=O)COc2ccc(-c3nn(C)c(=O)c4ccccc34)cc2)cc1 | -1.99%
O=C(COCc1cc(-c2cccs2)on1)Nc1cc(Cl)ccc1O | 9.34%
Cc1ccc(CNC(=O)C2CCN(S(=O)(=O)Cc3ccccc3)CC2)cc1 | 2.69%
CN(C)c1ccc(CNC(=O)C2CCCN(S(=O)(=O)c3ccc4c(ccn4C)c3)C2)cc1 (stereo not drawn) | 7.66%
Cc1ncc(CO)c2c1Oc1nc(-c3ccccc3)nc(SCC(=O)N3CCCCC3)c1C2 | 1.79%
CCN(CC)C(=O)Cn1c(=O)n(Cc2ccc(C(=O)NCc3ccc(C)cc3)cc2)c(=O)c2ccccc21 | 9.11%
Cc1ccn2c(=O)nc(SCC(=O)Nc3cc(C)on3)nc2c1 | active: 41.6%
CS(=O)(=O)N1CCc2cc(C(=O)Nc3ccc(Cl)c(C(F)(F)F)c3)ccc21 | -8.77%
Cc1nc2ncnn2c(C)c1CCC(=O)NCCCN1CCN(c2cccc(Cl)c2)CC1 | active: 72.5%
CCOCCCNC(=O)c1cc2c(=O)n(C)c3ccccc3c2n1C | 2.86%
Cc1ccc(NC(=O)c2cn3c4c(ccc(Cl)c4c2=O)OC(C)C3)cc1C (stereo not drawn) | 9.92%
O=C(CSc1cccc(C(F)(F)F)c1)Nc1ccc(Cl)cc1Cl | active: 48.6%
COc1ccc(NC(=O)Cn2c(=O)n(-c3cccc(C)c3)c(=O)c3c2c2cc(C)ccc2n3C)cc1Cl | -5.31%
CCOc1cc2sc(N3CCC(C(=O)Nc4ccccc4C(=O)OC)CC3)nc2cc1Br | 4.13%
O=C(C1CCC(CNS(=O)(=O)c2ccc(Br)s2)CC1)N1CCN(c2ccccc2Cl)CC1 (stereo not drawn) | 1.34%
O=c1oc2ccccc2n1CCCOc1ccccc1Cl | -5.03%
COc1cccc(N2CCN(C(=O)CCS(=O)(=O)c3ccc4c(c3)CC(=O)N4C)CC2)c1 | 0.851%
O=C(Cn1c(=O)oc2cc(S(=O)(=O)N3CCCC3)ccc21)NCc1ccc(Cl)cc1 | -2.38%
COc1cccc(NC(=O)CSc2nc(=O)n(Cc3ccccn3)c3c2CCC3)c1 | 14.9%
O=c1oc2ccc3ccccc3c2cc1-c1nnc(Nc2ccc(Cl)cc2Cl)s1 | 8.13%
